Where “and” joins values, the source holds several entries; their conditions need not be identical. Equal values may be shown once. In all, about 360,000 compounds went through this assay and about 25,000 (6.9%) were called active. The shares of active, inactive and inconclusive entries below differ from those in the screen. Calls come from the whole dose curve; as a rule, active = well fitted inhibition curve with a large enough effect; inconclusive = small, poorly fitted or top-dose-only effect; inactive = flat fitted curve, though single readings scatter. Where the call is inconclusive, the potency comes from a doubtful curve fit.
Each compound was assayed against Luciferin 4-monooxygenase (Photinus pyralis) (UniProt P08659) (assay: qHTS profiling assay for firefly luciferase inhibitor/activator using purifed enzyme and Km concentrations of substrates (counterscreen for miR-21 project)). Conditions: purified FLuc, luminescence inhibition; activity change, negative = inhibition: at 57.5 µM (top of the series).
Chain of UniProt P08659 (P08659 whole entry, looked up): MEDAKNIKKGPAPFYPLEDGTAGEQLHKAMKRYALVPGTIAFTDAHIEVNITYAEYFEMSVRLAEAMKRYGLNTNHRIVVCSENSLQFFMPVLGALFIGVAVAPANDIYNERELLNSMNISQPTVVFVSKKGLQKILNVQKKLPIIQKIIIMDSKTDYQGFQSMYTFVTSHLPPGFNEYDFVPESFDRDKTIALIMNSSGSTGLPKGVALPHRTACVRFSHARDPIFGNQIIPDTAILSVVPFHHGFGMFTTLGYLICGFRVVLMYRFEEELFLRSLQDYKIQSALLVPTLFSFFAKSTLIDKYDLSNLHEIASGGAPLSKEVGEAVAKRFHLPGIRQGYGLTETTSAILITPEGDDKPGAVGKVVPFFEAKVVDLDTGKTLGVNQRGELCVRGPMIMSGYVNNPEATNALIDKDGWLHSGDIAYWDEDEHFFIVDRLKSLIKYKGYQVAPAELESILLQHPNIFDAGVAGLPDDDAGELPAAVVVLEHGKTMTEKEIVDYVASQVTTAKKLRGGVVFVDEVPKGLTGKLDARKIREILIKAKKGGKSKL
How it was run: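 Biochemical qHTS of compounds, final roughly 60 µM downward over six points, against 10 nM purified firefly luciferase using Km concentrations of substrates (10 uM D-luciferin, 10 uM ATP) in Tris acetate pH 7.5 buffer; luminescence output.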
Note: nearly all actives have a fitted effect of over 55% in size.
Potency is the fitted concentration of half-maximal effect; tags give direction and shape of the fitted curve.
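Throughout, for activity change, negative = inhibition: plate controls were vehicle for no effect and reference inhibitor for full effect.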

How did the “activity change, negative = inhibition” value turn out when `Cc1cccc(CS(=O)(=O)Cc2ccc(C(=O)NC3CCCCC3)o2)c1` was run?
The value was inactive: -0.127%.

Which Potency does the source give for `O=C(NCc1ccco1)c1cccc(-c2nnc(-c3ccccc3)o2)c1` here?
The Potency was inconclusive: 19 µM [inhibitor, single point].

With `CC(C)(C)n1ncc2c(=O)n(Cc3ccc(Cl)cc3Cl)cnc21` as the compound, how does the Potency read?
Its Potency is inconclusive: 26.9 µM [inhibitor, single point].

With `Fc1cccc(Cl)c1-c1nnc2ccc3ccccc3n12` as the compound, how does the Potency read?
The Potency was active: 19 µM.

How did the “activity change, negative = inhibition” value turn out when `O=C(NNc1c(Cl)cc(Cl)cc1Cl)c1cccc([N+](=O)[O-])c1` was run?
The value was inactive: 3.64%.

How did the Potency turn out when `Cc1nn(-c2ccccc2)nc1C(=O)NNC(=O)c1cccc2ccccc12` was run?
The Potency was inconclusive: 37.9 µM [inhibitor, partial curve, poor fit].

`COc1cc(/C=N\NC(=O)c2ccc(C)nc2)ccc1OC(=O)c1ccco1` was tested. Which Potency did it give?
The Potency was inconclusive: 37.9 µM [inhibitor, partial curve, poor fit].

Which Potency does the source give for `CCc1ccccc1NC(=O)c1ccc2c(O)c(S(=O)(=O)c3ccccc3)c(=O)[nH]c2c1` here?
The Potency was inconclusive: 23.9 µM [inhibitor, partial curve, poor fit].

For `NCCCC[C@@H](C(=O)N1CCNCC1)n1cc([C@@H](N)CC(N)=O)nn1`, which “activity change, negative = inhibition” value is on record?
Its value is inactive: -2.04%.

With `CCOc1ncccc1C(=O)Oc1ccc2c(c1)OCO2` as the compound, how does the “activity change, negative = inhibition” value read?
The value was inactive: -9.77%.

`CCOc1ccc(NC(=O)CSc2nccn2Cc2ccco2)cc1` was tested. Which Potency did it give?
The Potency was inconclusive: 37.9 µM [inhibitor, single point] and inconclusive: 16.9 µM [inhibitor, partial curve].

`CCn1cc(Br)c(C(=O)Nc2ccc(Cl)cc2Cl)n1` was tested. Which Potency did it give?
The Potency was inconclusive: 26.9 µM [inhibitor, single point].

`CCCCn1c(N)c(N(CC(C)C)C(=O)c2oc3ccc(OC)cc3c2C)c(=O)[nH]c1=O` was tested. Which Potency did it give?
Its Potency is inconclusive: 16.9 µM [inhibitor, partial curve].

How did the “activity change, negative = inhibition” value turn out when `COc1ccc(-n2ccnc2SCC(=O)NC2CCCC2)cc1` was run?
Its value is inactive: 6.34%.

`COc1ccc(CNC(=O)C(=O)NCC2OCCN2S(=O)(=O)c2ccc(F)cc2)cc1` (stereo unspecified) was tested. Which Potency did it give?
The Potency was inconclusive: 26.9 µM [inhibitor, partial curve, poor fit].

`Cc1ccc2c(C)c(C(=O)N(Cc3ccc(Cl)cc3)C3CCS(=O)(=O)C3)oc2c1` (stereo unspecified) was tested. Which “activity change, negative = inhibition” value did it give?
Its value is inactive: 0.424%.

For `OC(COc1ccc(Cl)cc1)CSc1ccccn1` (stereo unspecified), which Potency is on record?
Its Potency is inconclusive: 21.3 µM [inhibitor, partial curve].

`O=C(O)c1cc(-c2ccc(/C=N/Nc3ccc(Cl)cc3)o2)ccc1Cl` was tested. Which Potency did it give?
Its Potency is active: 10.7 µM.

For `O=C(COc1ccccc1)OCc1csc(Nc2ccccc2)n1`, which Potency is on record?
Its Potency is inconclusive: 23.9 µM [inhibitor, single point].

Which Potency does the source give for `O=C(CSCc1ccccc1Cl)NN=C1CCCCCC1` here?
The Potency was inconclusive: 21.3 µM [inhibitor, single point].

For `Cc1ccc2c(c1)N(CC(=O)NCCc1ccccc1)C(=O)c1cccnc1O2`, which “activity change, negative = inhibition” value is on record?
The value was inactive: -2.11%.

For `Cc1ccc2c(N)c(C)ccc2c1`, which Potency is on record?
Its Potency is inconclusive: 37.9 µM [inhibitor, partial curve, poor fit].

`O=[N+]([O-])c1ccc(/C=N/NC2=NS(=O)(=O)c3ccccc32)cc1` was tested. Which Potency did it give?
The Potency was active: 15.1 µM.

How did the Potency turn out when `CC(C)NC(=O)COCc1cc(-c2ccc3c(c2)OCO3)on1` was run?
The Potency was inconclusive: 30.1 µM [inhibitor, partial curve, poor fit].

How did the Potency turn out when `COc1ccc2c(c1)-c1nc(/N=C/c3c(O)ccc4ccccc34)sc1CC2` was run?
Its Potency is inconclusive: 21.3 µM [inhibitor, partial curve, poor fit].

Which Potency does the source give for `N#Cc1nc(Cc2ccccc2)oc1N1CCCC1` here?
The Potency was inconclusive: 26.9 µM [inhibitor, partial curve, poor fit].

With `O=C(Nc1nnc(S(=O)(=O)N2CCOCC2)s1)c1ccccc1` as the compound, how does the Potency read?
The Potency was inconclusive: 26.9 µM [inhibitor, single point].

How did the “activity change, negative = inhibition” value turn out when `CN(C)c1ccc(C(CNS(=O)(=O)c2ccccc2)N2CCc3ccccc32)cc1` (stereo unspecified) was run?
Its value is inactive: -0.0363%.

`COc1ccc(CNC(=O)Cc2csc(NC(=O)Nc3ccccc3OC)n2)cc1` was tested. Which Potency did it give?
Its Potency is inconclusive: 15.1 µM [inhibitor, partial curve].

How did the Potency turn out when `Cc1ccnc(N2CCC(C(=O)Nc3ccc4c(c3)OCCO4)CC2)n1` was run?
The Potency was inconclusive: 26.9 µM [inhibitor, single point].

Which Potency does the source give for `CCc1ccc(NC(=O)CSc2nnnn2C)cc1` here?
The Potency was active: 23.9 µM.

With `COc1cc(NC(=O)N2CCC(CN3CCCC3)CC2)cc(OC)c1OC` as the compound, how does the “activity change, negative = inhibition” value read?
The value was inactive: -6.36%.

Which “activity change, negative = inhibition” value does the source give for `CN(c1cccc(Cl)c1)S(=O)(=O)c1cccc(C(=O)Nc2nc3ccccc3[nH]2)c1` here?
The value was inactive: -16.8%.

For `COc1cc2c(cc1NC(=O)CSCC(=O)O)oc1ccccc12`, which Potency is on record?
Its Potency is active: 21.3 µM.

`C/C(=N/NC(=O)c1cccs1)c1cccc(NC(=O)C2CC2)c1` was tested. Which Potency did it give?
Its Potency is inconclusive: 8.49 µM [inhibitor, partial curve, poor fit].

With `O=C(Nc1ccc(-c2nnco2)cc1)c1ccccc1` as the compound, how does the Potency read?
The Potency was inconclusive: 16.9 µM [inhibitor, partial curve, poor fit].

With `CCOCC(=O)N1CCc2ccccc21` as the compound, how does the “activity change, negative = inhibition” value read?
The value was inactive: 1.38%.

With `COCCCNc1nc(N)c([N+](=O)[O-])c(Nc2cc(OC)ccc2OC)n1` as the compound, how does the “activity change, negative = inhibition” value read?
The value was inactive: -0.565%.

Which “activity change, negative = inhibition” value does the source give for `COc1ccc(OC)c(NC(=O)CSC2=Nc3ccccc3C3=NC(CC(=O)NCc4ccc5c(c4)OCO5)C(=O)N23)c1` (stereo unspecified) here?
Its value is inactive: -10.4%.

Which Potency does the source give for `Cc1ccc(C2CC(c3cccc(NS(C)(=O)=O)c3)=NN2S(C)(=O)=O)cc1` (stereo unspecified) here?
The Potency was inconclusive: 26.9 µM [inhibitor, partial curve, poor fit].

Which Potency does the source give for `CCC(CO)Nc1ncnc2c1cnn2-c1ccc(Cl)cc1` (stereo unspecified) here?
The Potency was active: 1.69 µM.

For `CCOc1ccccc1C(=O)N(Cc1ccc(C)o1)C1CCS(=O)(=O)C1` (stereo unspecified), which “activity change, negative = inhibition” value is on record?
The value was inactive: -0.0187%.

Which Potency does the source give for `Cc1ccccc1NC(=O)COc1ccc(Br)cc1C` here?
Its Potency is inconclusive: 9.53 µM [inhibitor, partial curve].

For `O=C1CCN(S(=O)(=O)c2ccccc2)CCN1CCOCc1ccc(F)cc1`, which “activity change, negative = inhibition” value is on record?
The value was inactive: -0.639%.

For `O=C(NCCc1ccc2c(c1)OCCO2)c1ccccc1F`, which Potency is on record?
Its Potency is inconclusive: 21.3 µM [inhibitor, single point].

For `COCCn1c(C)cc(C(=O)CSc2nnnn2C2CCCC2)c1C`, which Potency is on record?
The Potency was active: 0.0849 µM.

`Cc1[nH]n(C(N)=S)c(=O)c1N=Nc1ccccc1C(F)(F)F` was tested. Which Potency did it give?
The Potency was inconclusive: 26.9 µM [inhibitor, single point].

How did the Potency turn out when `O=C(O)c1cccnc1SCc1cccc(Br)c1` was run?
Its Potency is inconclusive: 37.9 µM [inhibitor, single point].

For `O=C(NCCc1ccc(F)cc1)c1cccc(NC(=O)c2ccccc2)c1`, which Potency is on record?
The Potency was inconclusive: 21.3 µM [inhibitor, single point].

Which Potency does the source give for `O=C(COc1ccc2ccc(=O)oc2c1)c1ccccc1` here?
The Potency was inconclusive: 9.53 µM [inhibitor, partial curve, poor fit].

`COc1cc(C(=S)N2CCOCC2)cc(OC)c1OS(=O)(=O)c1ccc(C)cc1` was tested. Which “activity change, negative = inhibition” value did it give?
The value was inactive: 0.246%.

How did the Potency turn out when `CCc1ccc(C(=O)Nc2ccc(OC)c(S(=O)(=O)N3CCCCC3)c2)cc1` was run?
The Potency was inconclusive: 26.9 µM [inhibitor, partial curve, poor fit].

`Cc1nc2ccc(NC(=O)c3cncc(Br)c3)cc2s1` was tested. Which Potency did it give?
The Potency was inconclusive: 16.9 µM [inhibitor, partial curve, poor fit].

How did the Potency turn out when `O=C(Cc1ccc(Cl)c(Cl)c1)Nc1ccc(SC(F)F)cc1` was run?
Its Potency is inconclusive: 21.3 µM [inhibitor, single point].

Which “activity change, negative = inhibition” value does the source give for `CCOc1ccc(OC(=O)c2cn(-c3ccc(C)cc3)c(=O)c3ccccc23)cc1` here?
Its value is inactive: 3.83%.

How did the Potency turn out when `COc1cccc(C(=O)Nc2nnc(SCC(=O)NC3CC3)s2)c1` was run?
The Potency was active: 5.36 µM.

With `CN(CC(=O)Nc1sc2c(c1C#N)CCCCC2)Cc1nc2ccccc2c(=O)[nH]1` as the compound, how does the “activity change, negative = inhibition” value read?
Its value is inactive: -17.5%.

`Cc1ccc(C(=O)OCC(=O)c2ccc[nH]2)s1` was tested. Which Potency did it give?
Its Potency is inconclusive: 26.9 µM [inhibitor, partial curve].

Which “activity change, negative = inhibition” value does the source give for `CN(CC(=O)Nc1ccc(Cl)c(C(F)(F)F)c1)C(=O)c1cc(=O)c2ccccc2o1` here?
The value was inactive: 7.03%.

`O=C(Nc1cccnc1)c1cc(-c2cccnc2)nc2ccc(Br)cc12` was tested. Which Potency did it give?
The Potency was inconclusive: 26.9 µM [inhibitor, single point].

How did the “activity change, negative = inhibition” value turn out when `CNc1ccc(S(=O)(=O)NC)cc1[N+](=O)[O-]` was run?
Its value is inactive: -2.13%.

With `Cc1cc(O)c(-c2cc(C(=O)NCCc3ccc(S(N)(=O)=O)cc3)[nH]n2)cc1C` as the compound, how does the Potency read?
The Potency was inconclusive: 33.8 µM [inhibitor, single point].

Which Potency does the source give for `COc1ccccc1NC(=O)c1c[nH]c2ccccc12` here?
Its Potency is active: 21.3 µM.

`COc1cc(/C=C/c2[nH]c(=O)[nH]c(=O)c2[N+](=O)[O-])cc(OC)c1O` was tested. Which Potency did it give?
Its Potency is inconclusive: 37.9 µM [inhibitor, single point].

`Cc1[nH]c(C)c(C(=O)/C=C/c2ccc([N+](=O)[O-])cc2)c1C` was tested. Which Potency did it give?
Its Potency is inconclusive: 3.79 µM [inhibitor, full curve].

For `O=C(N/N=C/c1c(O)n(-c2ccc(Cl)cn2)c(=O)c2ccccc12)c1ccncc1`, which Potency is on record?
The Potency was inconclusive: 23.9 µM [inhibitor, single point].

For `CC(=O)c1cccc(NC(=O)Cc2cccs2)c1`, which Potency is on record?
The Potency was inconclusive: 21.3 µM [inhibitor, partial curve, poor fit].

With `COc1cc(/C=N/N=C2/NC(=O)C(c3ccccc3)S2)ccc1O` (stereo unspecified) as the compound, how does the Potency read?
Its Potency is inconclusive: 23.9 µM [inhibitor, single point].

With `CC(=O)Cc1nsc(Nc2ccc3c(c2)OCCO3)n1` as the compound, how does the Potency read?
Its Potency is active: 23.9 µM.

`Cc1ccc(NC(=O)CN2C(=O)S/C(=C/c3ccc(O)c([N+](=O)[O-])c3)C2=O)cc1C` was tested. Which Potency did it give?
The Potency was inconclusive: 13.5 µM [inhibitor, partial curve, poor fit].

For `CC1=C(c2ccc(C)c(C)c2)S(=O)(=O)N(Cc2ccc(C(=O)NCc3cccc(C)c3)cc2)C1=O`, which “activity change, negative = inhibition” value is on record?
Its value is inactive: -1.5%.

— PubChem BioAssay AID588342 (National Center for Advancing Translational Sciences (NCATS), 2011)
